We go through 32 sequences from publication PMC12820563.

This is one part of the list. The list includes weakly bound sequences.

The experiment concerns the target T1, MBP-FoxP3dN (UniProt Q99JB6).
T1 sequence: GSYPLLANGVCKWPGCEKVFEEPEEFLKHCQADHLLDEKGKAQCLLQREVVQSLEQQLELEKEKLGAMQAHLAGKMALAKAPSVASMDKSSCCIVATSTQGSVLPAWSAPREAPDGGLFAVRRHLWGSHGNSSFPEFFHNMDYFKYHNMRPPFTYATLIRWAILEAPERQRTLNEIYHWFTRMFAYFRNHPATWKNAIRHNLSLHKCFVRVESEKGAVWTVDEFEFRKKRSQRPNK
In words: PD-seq (MBP pull-down with sequencing). Particulars: 20 mM Tris-HCl pH 7.5, 100 mM NaCl, 1.5 mM MgCl2, 0.4 uM protein, 0.1 uM dsDNA library, 30 min, room temperature, amylose pull-down; high values mean tight binding; double strand, one strand shown.
“GATGATTGTTCTCCCAGCTGATGAATTACAGACCTCGAGTAAACAAATTTTCCTAATCTTTCTGTTCAAGCGCCATCTAC”: the binding signal (RPM ratio (pull-down/input)) was found to be 0.28.
For the sequence “GATGATTGTTCTCCCAGCTGATGAATTAAGACGTTCGAGTAAACAAATTTTCCTAATCTTTCTGTTCAAGCGCCATCTAC”, the binding signal (RPM ratio (pull-down/input)) turned out to be 0.38.
With “GATGATTGTTCTCCCAGCTGATGAATTTGATGGCTCGAGTAAACAAATTTTCCTAATCTTTCTGTTCAAGCGCCATCTAC”, the binding signal (RPM ratio (pull-down/input)) came to 2.49.
Take “GATGATTGTTCTCCCAGCTGATGAATTGAACAGTTCGAGTAAACAAATTTTCCTAATCTTTCTGTTCAAGCGCCATCTAC”: the binding signal (RPM ratio (pull-down/input)) was determined as 0.266.
Next, “GATGATTGTTCTCCCAGCTGATGAATTAACGTAGTCGAGTAAACAAATTTTCCTAATCTTTCTGTTCAAGCGCCATCTAC”: 0.352; “GATGATTGTTCTCCCAGCTGATGAATTTACTGAATCGAGTAAACAAATTTTCCTAATCTTTCTGTTCAAGCGCCATCTAC”: 0.305; “GATGATTGTTCTCCCAGCTGATGAATTGCCACCCTCGAGTAAACAAATTTTCCTAATCTTTCTGTTCAAGCGCCATCTAC”: 1.05.
The figure for “GATGATTGTTCTCCCAGCTGATGAATTCGTACCCTCGAGTAAACAAATTTTCCTAATCTTTCTGTTCAAGCGCCATCTAC” is 0.532; for “GATGATTGTTCTCCCAGCTGATGAATTCGTTTCGTCGAGTAAACAAATTTTCCTAATCTTTCTGTTCAAGCGCCATCTAC” it is 1.69.
“GATGATTGTTCTCCCAGCTGATGAATTGTACACTTCGAGTAAACAAATTTTCCTAATCTTTCTGTTCAAGCGCCATCTAC”: the binding signal (RPM ratio (pull-down/input)) was determined as 0.789.
Next, “GATGATTGTTCTCCCAGCTGATGAATTATCGGTGTCGAGTAAACAAATTTTCCTAATCTTTCTGTTCAAGCGCCATCTAC”: 0.505; “GATGATTGTTCTCCCAGCTGATGAATTGTTCATCTCGAGTAAACAAATTTTCCTAATCTTTCTGTTCAAGCGCCATCTAC”: 0.501; “GATGATTGTTCTCCCAGCTGATGAATTTAAATAATCGAGTAAACAAATTTTCCTAATCTTTCTGTTCAAGCGCCATCTAC”: 0.436.
Turning to “GATGATTGTTCTCCCAGCTGATGAATTCTGCGGTTCGAGTAAACAAATTTTCCTAATCTTTCTGTTCAAGCGCCATCTAC”, the binding signal (RPM ratio (pull-down/input)) amounted to 0.932.
The figure for “GATGATTGTTCTCCCAGCTGATGAATTAAAAGGATCGAGTAAACAAATTTTCCTAATCTTTCTGTTCAAGCGCCATCTAC” is 0.179.
The figure for “GATGATTGTTCTCCCAGCTGATGAATTAGTGAGTTCGAGTAAACAAATTTTCCTAATCTTTCTGTTCAAGCGCCATCTAC” is 2.09; for “GATGATTGTTCTCCCAGCTGATGAATTCTGGCGATCGAGTAAACAAATTTTCCTAATCTTTCTGTTCAAGCGCCATCTAC” it is 0.446.
Next, “GATGATTGTTCTCCCAGCTGATGAATTTCTCTTATCGAGTAAACAAATTTTCCTAATCTTTCTGTTCAAGCGCCATCTAC”: 0.296.
For the sequence “GATGATTGTTCTCCCAGCTGATGAATTCCCCAAGTCGAGTAAACAAATTTTCCTAATCTTTCTGTTCAAGCGCCATCTAC”, the binding signal (RPM ratio (pull-down/input)) is 0.14.
Next, “GATGATTGTTCTCCCAGCTGATGAATTCTAATAGTCGAGTAAACAAATTTTCCTAATCTTTCTGTTCAAGCGCCATCTAC”: 0.82.
The figure for “GATGATTGTTCTCCCAGCTGATGAATTGATACTGTCGAGTAAACAAATTTTCCTAATCTTTCTGTTCAAGCGCCATCTAC” is 0.819; for “GATGATTGTTCTCCCAGCTGATGAATTACCGCTTTCGAGTAAACAAATTTTCCTAATCTTTCTGTTCAAGCGCCATCTAC” it is 1.09.
The figure for “GATGATTGTTCTCCCAGCTGATGAATTTCTGGTATCGAGTAAACAAATTTTCCTAATCTTTCTGTTCAAGCGCCATCTAC” is 0.404.
For “GATGATTGTTCTCCCAGCTGATGAATTGGGAGCATCGAGTAAACAAATTTTCCTAATCTTTCTGTTCAAGCGCCATCTAC”, the binding signal (RPM ratio (pull-down/input)) turned out to be 0.787.
Next, “GATGATTGTTCTCCCAGCTGATGAATTACGATCGTCGAGTAAACAAATTTTCCTAATCTTTCTGTTCAAGCGCCATCTAC”: 0.481.
The figure for “GATGATTGTTCTCCCAGCTGATGAATTGCGGCTGTCGAGTAAACAAATTTTCCTAATCTTTCTGTTCAAGCGCCATCTAC” is 0.75.
Next, “GATGATTGTTCTCCCAGCTGATGAATTTTTCACTTCGAGTAAACAAATTTTCCTAATCTTTCTGTTCAAGCGCCATCTAC”: 0.25.
Regarding “GATGATTGTTCTCCCAGCTGATGAATTCCGTATATCGAGTAAACAAATTTTCCTAATCTTTCTGTTCAAGCGCCATCTAC”, the binding signal (RPM ratio (pull-down/input)) stood at 2.23.
As to “GATGATTGTTCTCCCAGCTGATGAATTGAAACTGTCGAGTAAACAAATTTTCCTAATCTTTCTGTTCAAGCGCCATCTAC”, the binding signal (RPM ratio (pull-down/input)) stood at 0.318.
Next, “GATGATTGTTCTCCCAGCTGATGAATTCCGGGGGTCGAGTAAACAAATTTTCCTAATCTTTCTGTTCAAGCGCCATCTAC”: 0.538.
Next, “GATGATTGTTCTCCCAGCTGATGAATTCATGATTTCGAGTAAACAAATTTTCCTAATCTTTCTGTTCAAGCGCCATCTAC”: 0.975; “GATGATTGTTCTCCCAGCTGATGAATTTCTACTTTCGAGTAAACAAATTTTCCTAATCTTTCTGTTCAAGCGCCATCTAC”: 0.265.
